This passage reports activity change, negative = inhibition results from PubChem BioAssay AID1745853 (National Center for Advancing Translational Sciences (NCATS), 2022).

Holding throughout (assay): Primary Screen for Target Class Profiling of Small Molecule Inhibitors of Methyltransferases
In assay [1] the target is Glycine N-methyltransferase (Homo sapiens) (UniProt Q14749). The note with it: purified enzyme, MTase-Glo SAH luminescence; measured here: GNMT inhibition; at 40 µM; stronger effect = lower value. The gist of the method:
(§1)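 Each enzyme was assayed with SAM and its substrate. SAH formation detected by MTase-Glo luminescence; single-point 40 uM screen[…].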

The target in assay [2] is Guanidinoacetate N-methyltransferase (Homo sapiens) (UniProt Q14353). The settings on record: purified enzyme, MTase-Glo SAH luminescence; measured here: GAMT inhibition; at 40 µM; stronger effect = lower value. The method, boiled down:
as §1

Assay [3] addresses Histamine N-methyltransferase (Homo sapiens) (UniProt P50135). The settings on record: purified enzyme, MTase-Glo SAH luminescence; measured here: HNMT inhibition; at 40 µM; stronger effect = lower value. The method, boiled down:
as §1

For assay [4], the target named is Nicotinamide N-methyltransferase (Homo sapiens) (UniProt P40261). The settings on record: purified enzyme, MTase-Glo SAH luminescence; measured here: NNMT inhibition; at 40 µM; stronger effect = lower value. The gist of the method: as §1
Assay [5] has as its target Phenylethanolamine N-methyltransferase (Homo sapiens) (UniProt P11086). The settings on record: purified enzyme, MTase-Glo SAH luminescence; measured here: PNMT inhibition; at 40 µM; stronger effect = lower value. The gist of the method:
as §1

Molecules are shown by their SMILES. The list shows a part of the results. Shown are side measurements of this screen, not its main read-out; they come without a call.
On the % scale 0 is the no-effect control and ±100 the full control effect.

As for `CC(C)c1cc(C(=O)N2CC[C@H](NC(=O)C3CC3)C2)n[nH]1`, the activity change, negative = inhibition in assay [1] is -4.97%; in assay [2] it was 4.24%; in assay [3], -4.49%; in assay [4], -19.3%; in assay [5], -12%.
Consider `Cc1cnc(CC2CCN(C(=O)Nc3ccc4c(c3)OCCO4)C2)n1C1CC1` (stereo not given), for which the activity change, negative = inhibition was -7.06% in assay [1]; -10.6% in assay [2]; -25.7% in assay [3]; -21% in assay [4]; -9.9% in assay [5].
`COc1ccccc1-c1cccc(CN2CCC(NC(C)=O)CC2)c1`: the activity change, negative = inhibition was -7.28% in assay [1]; -11.3% in assay [2]; -5.36% in assay [3]; -19.8% in assay [4]; -23% in assay [5].
Turning to `COc1ccc2cc3n(c2c1)CC(C)(C(=O)NC1CCCCC1)N(CCN1CCCC1)C3=O` (stereo not given), the activity change, negative = inhibition in assay [1] is -1.79%; in assay [2], -0.429%; in assay [3], -3.86%; in assay [4] it was -5.05%; in assay [5], -2.79%.
Regarding `CC1(C(=O)NC2CCCCCCC2)Cn2c(ccc2-c2ccccc2)C(=O)N1Cc1ccco1` (stereo not given), the activity change, negative = inhibition is -4.3% in assay [1]; 0.816% in assay [2]; -7.93% in assay [3]; -18.4% in assay [4]; -7.14% in assay [5].
Consider `CC(C)Cn1c(=O)c2ccc(C(=O)NC3CCCCC3)cc2n2c(=O)n(Cc3ccccc3F)nc12`, for which the activity change, negative = inhibition in assay [1] turned out to be 3.67%; in assay [2], 0.13%; in assay [3] it was 3.31%; in assay [4] it was 2.15%; in assay [5] it was 4.63%.
In the case of `COc1ccccc1CNC(=O)C1c2c(n(C)c3ccccc23)SCC(=O)N1c1ccc(C)cc1Cl` (stereo not given), the activity change, negative = inhibition was 7.15% in assay [1]; 1.74% in assay [2]; -1.49% in assay [3]; -3.32% in assay [4]; 1.08% in assay [5].
Turning to `COc1cccc(CC(=O)N2CCC(CC3CC3)(NC(=O)c3ccccc3)CC2)c1`, the activity change, negative = inhibition is -3.39% in assay [1]; -3.61% in assay [2]; -0.721% in assay [3]; -3.38% in assay [4]; 3.96% in assay [5].
In the same order, the values of `CN(C)C(=O)NC1(c2ccccc2)CCN(CCC[C@]2(c3ccc(Cl)c(Cl)c3)CCCN(C(=O)c3ccccc3)C2)CC1` are -3.26%, 4.83%, -7.48%, -39.9% and -4.98%.
Consider `CC(C)CCNC(=O)C1c2c(n(C)c3ccccc23)SCC(=O)N1c1ccc(F)cc1` (stereo not given), for which the activity change, negative = inhibition in assay [1] is 7.39%; in assay [2], 2.39%; in assay [3], 1.84%; in assay [4], 2.38%; in assay [5], 5.73%.
For `Cc1cc(S(=O)(=O)N2CCN(C3CCN(Cc4ccccn4)C3=O)CC2)ccc1Cl` (stereo not given), the activity change, negative = inhibition in assay [1] is -4.07%; in assay [2] it was -4.44%; in assay [3], -4.12%; in assay [4], -8.8%; in assay [5] it was -6.83%.
Turning to `COc1ccc(C(=O)Cn2nc3n(Cc4ccc(F)cc4)c(=O)c4ccccc4n3c2=O)cc1OC`, the activity change, negative = inhibition in assay [1] came to 6.19%; in assay [2], 0%; in assay [3], 12.5%; in assay [4] it was 5.3%; in assay [5], 8.27%.
For `CCOC(=O)c1cc2n(n1)CC(C)(C(=O)NCc1ccc(C)cc1)N(c1ccccc1CC)C2=O` (stereo not given) the same measures were 3.87%, 1.06%, 4.79%, 6.97% and 4.58%.
As to `O=C([C@@H]1C[C@H](F)CN1C(=O)c1ccc(Cl)cc1)N1CCCCC1`, the activity change, negative = inhibition was -3.09% in assay [1]; -1.32% in assay [2]; -0.591% in assay [3]; -1% in assay [4]; -2.48% in assay [5].
`Cc1ccc(-c2noc(CCCC(=O)N3CCC(CCOc4ccccc4F)C3)n2)cc1` (stereo not given): the activity change, negative = inhibition in assay [1] was -4.51%; in assay [2], -6.87%; in assay [3], -5.36%; in assay [4] it was -17%; in assay [5], -10.1%.
In the case of `CC(=O)N1CC2(CCN(C3CCCCC3)CC2)Cc2ccccc21`, the activity change, negative = inhibition was -6.02% in assay [1]; -5.83% in assay [2]; -19.7% in assay [3]; -8.87% in assay [4]; -10.1% in assay [5].
With `Cc1ccccc1CN1C(=O)c2cc3ccccc3n2CC1(C)C(=O)NCc1ccccc1` (stereo not given), the activity change, negative = inhibition in assay [1] is -2.85%; in assay [2], 3.99%; in assay [3] it was -2.34%; in assay [4], -5.37%; in assay [5] it was -4.13%.
Regarding `CC1=NOC2(CCN(C(=O)c3ccccc3)C2)C1` (stereo not given), the activity change, negative = inhibition in assay [1] was -7.26%; in assay [2], -7.68%; in assay [3], -5.02%; in assay [4], -19.6%; in assay [5], -8.07%.
For `O=S(=O)(c1ccccc1)N1CCCC(Cc2noc(-c3ccncc3)n2)C1` (stereo not given), the activity change, negative = inhibition in assay [1] was -3.81%; in assay [2] it was 2.88%; in assay [3], 0.497%; in assay [4], -2.47%; in assay [5], -15.7%.
As for `CCN(CC)c1nc2c(S(=O)(=O)c3ccc(C(C)C)cc3)nnn2c2ccccc12`, the activity change, negative = inhibition is -8.53% in assay [1]; -1.45% in assay [2]; -11.3% in assay [3]; -12.7% in assay [4]; -16.2% in assay [5].
As to `CC1CC(C)CN(CCCN2C(=O)c3ccc(-c4ccco4)n3CC2(C)C(=O)NC2CCCCCC2)C1` (stereo not given), the activity change, negative = inhibition in assay [1] was -13.9%; in assay [2] it was 1.28%; in assay [3] it was -14.5%; in assay [4] it was -17.1%; in assay [5], -3.01%.
For `CCOc1cccc(C2c3cccn3-c3sc4c(c3CN2C(=O)Nc2ccc(F)cc2)CCCC4)c1` (stereo not given), the activity change, negative = inhibition is -1.1% in assay [1]; 0% in assay [2]; 1.24% in assay [3]; -1.65% in assay [4]; 2.17% in assay [5].
Consider `Cc1cnc(-c2ccccc2)n1C1CCN(C(=O)c2ccco2)CC1`, for which the activity change, negative = inhibition in assay [1] is -3.27%; in assay [2], -1.77%; in assay [3], 0.292%; in assay [4], -4.11%; in assay [5], -1.06%.
`O=C(NC1CCCCCC1)c1cc(-c2cc(Cl)cc(Cl)c2)c2nncn2n1`: the activity change, negative = inhibition was -9.8% in assay [1]; -13.8% in assay [2]; -7.5% in assay [3]; -18.1% in assay [4]; -14.7% in assay [5].
On to `CC(C)=CCc1ccc(Oc2c(O)cc(C)cc2CO)c(C(=O)O)c1O`, for which the activity change, negative = inhibition in assay [1] was 3.07%; in assay [2] it was 4.04%; in assay [3] it was 6.88%; in assay [4] it was -6.1%; in assay [5], 4.45%.
Consider `CCCN1CCN(CCCN2C(=O)c3cc4occc4n3CC2(C)C(=O)NC2CCCCCC2)CC1` (stereo not given), for which the activity change, negative = inhibition was 0.732% in assay [1]; 3.92% in assay [2]; 4.53% in assay [3]; 1.83% in assay [4]; -0.916% in assay [5].
Consider `Cc1cc(Cn2cnc3c2C[C@@H](C(=O)O)N(C(=O)C(c2ccccc2)c2ccccc2)C3)ccc1N`, for which the activity change, negative = inhibition in assay [1] was -5.81%; in assay [2], 10.5%; in assay [3], 3.2%; in assay [4], -4.7%; in assay [5], 6.12%.
Turning to `CCCn1c(=O)c2cc(Cl)ccc2n2c(=O)n(CC(=O)Nc3cc(F)ccc3F)nc12`, the activity change, negative = inhibition worked out at 3.86% in assay [1]; 0% in assay [2]; 10.8% in assay [3]; 9.44% in assay [4]; 6.26% in assay [5].
For `CCCn1c(=O)c2ccc(C(=O)NC(C)C)cc2n2c(SCC(=O)Nc3ccc(C)c(C)c3)nnc12` the same measures were -2.63%, -4.22%, -0.046%, -9.74% and -3.46%.
